{
  "source": "a compilation of properties of binary mixtures (doi:10.1007/s10953-010-9600-3)",
  "assay": "xn = mol fraction of the nth substance listed",
  "details": "101 kPa",
  "note": "The densities may have been worked out from excess volumes.",
  "data": [
    {"molecule": "O=C1CCCO1", "note": "+ CC[NH3+].O=[N+]([O-])[O-]", "values": [
      {"measurement": "mass density", "setting": "293.15 K, x1 = 1", "result": 1120.3, "unit": "kg/m3"},
      {"measurement": "mass density", "setting": "298.15 K, x1 = 1", "result": 1115.6, "unit": "kg/m3"},
      {"measurement": "mass density", "setting": "303.15 K, x1 = 1", "result": 1109.1, "unit": "kg/m3"},
      {"measurement": "mass density", "setting": "308.15 K, x1 = 1", "result": 1106.1, "unit": "kg/m3"},
      {"measurement": "mass density", "setting": "313.15 K, x1 = 1", "result": 1101.4, "unit": "kg/m3"},
      {"measurement": "mass density", "setting": "318.15 K, x1 = 1", "result": 1096.7, "unit": "kg/m3"}
    ]},
    {"molecule": "CC[NH3+].O=[N+]([O-])[O-]", "note": "+ O=C1CCCO1", "values": [
      {"measurement": "mass density", "setting": "293.15 K, x2 = 0", "result": 1210.2, "unit": "kg/m3"},
      {"measurement": "mass density", "setting": "293.15 K, x2 = 0.03", "result": 1205.7, "unit": "kg/m3"},
      {"measurement": "mass density", "setting": "293.15 K, x2 = 0.09", "result": 1199, "unit": "kg/m3"},
      {"measurement": "mass density", "setting": "293.15 K, x2 = 0.15", "result": 1193.4, "unit": "kg/m3"},
      {"measurement": "mass density", "setting": "293.15 K, x2 = 0.22", "result": 1188.8, "unit": "kg/m3"},
      {"measurement": "mass density", "setting": "293.15 K, x2 = 0.28", "result": 1184.8, "unit": "kg/m3"},
      {"measurement": "mass density", "setting": "293.15 K, x2 = 0.34", "result": 1181.3, "unit": "kg/m3"},
      {"measurement": "mass density", "setting": "293.15 K, x2 = 0.41", "result": 1178, "unit": "kg/m3"},
      {"measurement": "mass density", "setting": "293.15 K, x2 = 0.47", "result": 1174.8, "unit": "kg/m3"},
      {"measurement": "mass density", "setting": "293.15 K, x2 = 0.53", "result": 1171.4, "unit": "kg/m3"},
      {"measurement": "mass density", "setting": "293.15 K, x2 = 0.59", "result": 1167.7, "unit": "kg/m3"},
      {"measurement": "mass density", "setting": "293.15 K, x2 = 0.72", "result": 1158.2, "unit": "kg/m3"},
      {"measurement": "mass density", "setting": "293.15 K, x2 = 0.78", "result": 1152, "unit": "kg/m3"},
      {"measurement": "mass density", "setting": "293.15 K, x2 = 0.85", "result": 1144.6, "unit": "kg/m3"},
      {"measurement": "mass density", "setting": "293.15 K, x2 = 0.91", "result": 1135.7, "unit": "kg/m3"},
      {"measurement": "mass density", "setting": "293.15 K, x2 = 0.97", "result": 1125.2, "unit": "kg/m3"},
      {"measurement": "mass density", "setting": "298.15 K, x2 = 0", "result": 1205.8, "unit": "kg/m3"},
      {"measurement": "mass density", "setting": "298.15 K, x2 = 0.03", "result": 1201.8, "unit": "kg/m3"},
      {"measurement": "mass density", "setting": "298.15 K, x2 = 0.09", "result": 1195.4, "unit": "kg/m3"},
      {"measurement": "mass density", "setting": "298.15 K, x2 = 0.15", "result": 1190.1, "unit": "kg/m3"},
      {"measurement": "mass density", "setting": "298.15 K, x2 = 0.22", "result": 1185.6, "unit": "kg/m3"},
      {"measurement": "mass density", "setting": "298.15 K, x2 = 0.28", "result": 1181.7, "unit": "kg/m3"},
      {"measurement": "mass density", "setting": "298.15 K, x2 = 0.34", "result": 1178.1, "unit": "kg/m3"},
      {"measurement": "mass density", "setting": "298.15 K, x2 = 0.41", "result": 1174.8, "unit": "kg/m3"},
      {"measurement": "mass density", "setting": "298.15 K, x2 = 0.53", "result": 1167.9, "unit": "kg/m3"},
      {"measurement": "mass density", "setting": "298.15 K, x2 = 0.59", "result": 1164, "unit": "kg/m3"},
      {"measurement": "mass density", "setting": "298.15 K, x2 = 0.78", "result": 1147.7, "unit": "kg/m3"},
      {"measurement": "mass density", "setting": "298.15 K, x2 = 0.91", "result": 1131.1, "unit": "kg/m3"},
      {"measurement": "mass density", "setting": "303.15 K, x2 = 0.03", "result": 1197.7, "unit": "kg/m3"},
      {"measurement": "mass density", "setting": "303.15 K, x2 = 0.09", "result": 1191.9, "unit": "kg/m3"},
      {"measurement": "mass density", "setting": "303.15 K, x2 = 0.22", "result": 1182.7, "unit": "kg/m3"},
      {"measurement": "mass density", "setting": "303.15 K, x2 = 0.28", "result": 1178.8, "unit": "kg/m3"},
      {"measurement": "mass density", "setting": "303.15 K, x2 = 0.34", "result": 1175.2, "unit": "kg/m3"},
      {"measurement": "mass density", "setting": "303.15 K, x2 = 0.41", "result": 1171.7, "unit": "kg/m3"},
      {"measurement": "mass density", "setting": "303.15 K, x2 = 0.53", "result": 1164.2, "unit": "kg/m3"},
      {"measurement": "mass density", "setting": "303.15 K, x2 = 0.66", "result": 1155, "unit": "kg/m3"},
      {"measurement": "mass density", "setting": "303.15 K, x2 = 0.72", "result": 1149.2, "unit": "kg/m3"},
      {"measurement": "mass density", "setting": "303.15 K, x2 = 0.85", "result": 1134.4, "unit": "kg/m3"},
      {"measurement": "mass density", "setting": "303.15 K, x2 = 0.91", "result": 1125.1, "unit": "kg/m3"},
      {"measurement": "mass density", "setting": "303.15 K, x2 = 0.97", "result": 1114.2, "unit": "kg/m3"},
      {"measurement": "mass density", "setting": "308.15 K, x2 = 0", "result": 1196.9, "unit": "kg/m3"},
      {"measurement": "mass density", "setting": "308.15 K, x2 = 0.03", "result": 1193.9, "unit": "kg/m3"},
      {"measurement": "mass density", "setting": "308.15 K, x2 = 0.09", "result": 1188.3, "unit": "kg/m3"},
      {"measurement": "mass density", "setting": "308.15 K, x2 = 0.15", "result": 1183.5, "unit": "kg/m3"},
      {"measurement": "mass density", "setting": "308.15 K, x2 = 0.22", "result": 1179.2, "unit": "kg/m3"},
      {"measurement": "mass density", "setting": "308.15 K, x2 = 0.28", "result": 1175.4, "unit": "kg/m3"},
      {"measurement": "mass density", "setting": "308.15 K, x2 = 0.34", "result": 1171.9, "unit": "kg/m3"},
      {"measurement": "mass density", "setting": "308.15 K, x2 = 0.47", "result": 1164.8, "unit": "kg/m3"},
      {"measurement": "mass density", "setting": "308.15 K, x2 = 0.53", "result": 1160.9, "unit": "kg/m3"},
      {"measurement": "mass density", "setting": "308.15 K, x2 = 0.66", "result": 1151.6, "unit": "kg/m3"},
      {"measurement": "mass density", "setting": "308.15 K, x2 = 0.72", "result": 1145.8, "unit": "kg/m3"},
      {"measurement": "mass density", "setting": "308.15 K, x2 = 0.85", "result": 1131.1, "unit": "kg/m3"},
      {"measurement": "mass density", "setting": "308.15 K, x2 = 0.91", "result": 1121.8, "unit": "kg/m3"},
      {"measurement": "mass density", "setting": "308.15 K, x2 = 0.97", "result": 1111.1, "unit": "kg/m3"},
      {"measurement": "mass density", "setting": "313.15 K, x2 = 0.09", "result": 1184.7, "unit": "kg/m3"},
      {"measurement": "mass density", "setting": "313.15 K, x2 = 0.28", "result": 1172.3, "unit": "kg/m3"},
      {"measurement": "mass density", "setting": "313.15 K, x2 = 0.34", "result": 1168.7, "unit": "kg/m3"},
      {"measurement": "mass density", "setting": "313.15 K, x2 = 0.41", "result": 1165.2, "unit": "kg/m3"},
      {"measurement": "mass density", "setting": "313.15 K, x2 = 0.47", "result": 1161.4, "unit": "kg/m3"},
      {"measurement": "mass density", "setting": "313.15 K, x2 = 0.53", "result": 1157.4, "unit": "kg/m3"},
      {"measurement": "mass density", "setting": "313.15 K, x2 = 0.59", "result": 1152.9, "unit": "kg/m3"},
      {"measurement": "mass density", "setting": "313.15 K, x2 = 0.72", "result": 1141.7, "unit": "kg/m3"},
      {"measurement": "mass density", "setting": "313.15 K, x2 = 0.85", "result": 1126.7, "unit": "kg/m3"},
      {"measurement": "mass density", "setting": "313.15 K, x2 = 0.91", "result": 1117.3, "unit": "kg/m3"},
      {"measurement": "mass density", "setting": "313.15 K, x2 = 0.97", "result": 1106.4, "unit": "kg/m3"},
      {"measurement": "mass density", "setting": "318.15 K, x2 = 0.03", "result": 1186, "unit": "kg/m3"},
      {"measurement": "mass density", "setting": "318.15 K, x2 = 0.09", "result": 1181.1, "unit": "kg/m3"},
      {"measurement": "mass density", "setting": "318.15 K, x2 = 0.15", "result": 1176.8, "unit": "kg/m3"},
      {"measurement": "mass density", "setting": "318.15 K, x2 = 0.22", "result": 1172.9, "unit": "kg/m3"},
      {"measurement": "mass density", "setting": "318.15 K, x2 = 0.28", "result": 1169.2, "unit": "kg/m3"},
      {"measurement": "mass density", "setting": "318.15 K, x2 = 0.34", "result": 1165.6, "unit": "kg/m3"},
      {"measurement": "mass density", "setting": "318.15 K, x2 = 0.41", "result": 1161.9, "unit": "kg/m3"},
      {"measurement": "mass density", "setting": "318.15 K, x2 = 0.53", "result": 1153.9, "unit": "kg/m3"},
      {"measurement": "mass density", "setting": "318.15 K, x2 = 0.66", "result": 1143.8, "unit": "kg/m3"},
      {"measurement": "mass density", "setting": "318.15 K, x2 = 0.72", "result": 1137.6, "unit": "kg/m3"},
      {"measurement": "mass density", "setting": "318.15 K, x2 = 0.78", "result": 1130.4, "unit": "kg/m3"},
      {"measurement": "mass density", "setting": "318.15 K, x2 = 0.85", "result": 1122.2, "unit": "kg/m3"},
      {"measurement": "mass density", "setting": "318.15 K, x2 = 0.91", "result": 1112.6, "unit": "kg/m3"},
      {"measurement": "mass density", "setting": "318.15 K, x2 = 0.97", "result": 1101.7, "unit": "kg/m3"}
    ]}
  ]
}
